These results are taken from patent US20250059278A1 (SICHUAN HUIYU PHARMACEUTICAL, published 2025).

The chains are these.
B1: CD3-MSLN bispecific antibody B2 (bispecific antibody, human IgG1, lambda)
heavy: EVQLVESGGGLVQPGGSLRLSCAASGFTFNTYAMNWVRQAPGKGLEWVARIRSKYNNYATYYADSVKGRFTISRDDSKSSLYLQMNSLKTEDTAMYYCVRAKNFGNSYVSWFAYWGQGTLVTVSSASTKGPSVFPLAPSSKSTSGGTAALGCLVKDYFPEPVTVSWNSGALTSGVHTFPAVLQSSGLYSLSSVVTVPSSSLGTQTYICNVNHKPSNTKVDKKV[letters of human IgG1 Fc with changes omitted]GGGGSGGGGSEVQLVESGGGLVQAGESLRLSCAVSGNIGSIRHMGWHRQDPGKERELVATITTVGTTYYANFVKGRFTISRDNAKNTVYLQMNSLKPEDTGVYYCRATAHPTDYWGQGTQVTVSS
light: [letters of about 100 residues omitted][letters of about 100 residues omitted]
notes: [VH2]-[CH]-[L]-[3C6 VHH] with [VL-1]-[CL]
B2: CD3-MSLN bispecific antibody B19 (bispecific antibody, human IgG1, lambda)
heavy: EVQLVESGGGLVQPGGSLRLSCAASGFTFNTYAMNWVRQAPGKGLEWVARIRSKYNNYATYYADSVKDRFTISRDDSKSILYLQMNSLKTEDTAVYYCVRHGNFGNSAVSWFQYWGQGTLVTVSSASTKGPSVFPLAPSSKSTSGGTAALGCLVKDYFPEPVTVSWNSGALTSGVHTFPAVLQSSGLYSLSSVVTVPSSSLGTQTYICNVNHKPSNTKVDKKV[letters of human IgG1 Fc with changes omitted]GGGGSGGGGSEVQLVESGGGLVQAGESLRLSCAVSGNIGSIRHMGWHRQDPGKERELVATITTVGTTYYANFVKGRFTISRDNAKNTVYLQMNSLKPEDTGVYYCRATAHPTDYWGQGTQVTVSS
light: [letters of about 100 residues omitted][letters of about 100 residues omitted]
notes: [VH19]-[CH]-[L]-[3C6 VHH] with [VL-1]-[CL]
B3: CD3-MSLN bispecific antibody B9 (bispecific antibody, human IgG1, lambda)
heavy: EVQLVESGGGLVQPGGSLRLSCAASGFTFNTYAMNWVRQAPGKGLEWVARIRSKYNNYATYYADSVKGRFTISRDDSKSILYLQMNSLKTEDTAMYYCVRHGNFGNSYVSWFKYWGQGTLVTVSSASTKGPSVFPLAPSSKSTSGGTAALGCLVKDYFPEPVTVSWNSGALTSGVHTFPAVLQSSGLYSLSSVVTVPSSSLGTQTYICNVNHKPSNTKVDKKV[letters of human IgG1 Fc with changes omitted]GGGGSGGGGSEVQLVESGGGLVQAGESLRLSCAVSGNIGSIRHMGWHRQDPGKERELVATITTVGTTYYANFVKGRFTISRDNAKNTVYLQMNSLKPEDTGVYYCRATAHPTDYWGQGTQVTVSS
light: [letters of about 100 residues omitted][letters of about 100 residues omitted]
notes: [VH9]-[CH]-[L]-[3C6 VHH] with [VL-1]-[CL]
B4: CD3-MSLN bispecific antibody B6 (bispecific antibody, human IgG1, lambda)
heavy: EVQLVESGGGLVQPGGSLRLSCAASGFTFNTYAMNWVRQAPGKGLEWVARIRSKYNNYATYYADSVKGRFTISRDDSKSSLYLQMNSLKTEDTAMYYCVRHGNFYNSYVSWFAHWGQGTLVTVSSASTKGPSVFPLAPSSKSTSGGTAALGCLVKDYFPEPVTVSWNSGALTSGVHTFPAVLQSSGLYSLSSVVTVPSSSLGTQTYICNVNHKPSNTKVDKKV[letters of human IgG1 Fc with changes omitted]GGGGSGGGGSEVQLVESGGGLVQAGESLRLSCAVSGNIGSIRHMGWHRQDPGKERELVATITTVGTTYYANFVKGRFTISRDNAKNTVYLQMNSLKPEDTGVYYCRATAHPTDYWGQGTQVTVSS
light: [letters of about 100 residues omitted][letters of about 100 residues omitted]
notes: [VH6]-[CH]-[L]-[3C6 VHH] with [VL-1]-[CL]
B5: CD3-MSLN bispecific antibody B14 (bispecific antibody, human IgG1, lambda)
heavy: EVQLVESGGGLVQPGGSLRLSCAASGFTFNTYAMNWVRQAPGKGLEWVARIRSKYNNYATYYADSVKDRFTISRDDSKSSLYLQMNSLKTEDTAMYYCVRHSNFGNSYVSWFEYWGQGTLVTVSSASTKGPSVFPLAPSSKSTSGGTAALGCLVKDYFPEPVTVSWNSGALTSGVHTFPAVLQSSGLYSLSSVVTVPSSSLGTQTYICNVNHKPSNTKVDKKV[letters of human IgG1 Fc with changes omitted]GGGGSGGGGSEVQLVESGGGLVQAGESLRLSCAVSGNIGSIRHMGWHRQDPGKERELVATITTVGTTYYANFVKGRFTISRDNAKNTVYLQMNSLKPEDTGVYYCRATAHPTDYWGQGTQVTVSS
light: [letters of about 100 residues omitted][letters of about 100 residues omitted]
notes: [VH14]-[CH]-[L]-[3C6 VHH] with [VL-1]-[CL]
B6: CD3-MSLN bispecific antibody B23 (bispecific antibody, human IgG1, lambda)
heavy: EVQLVESGGGLVQPGGSLRLSCAASGFTFNTYAMNWVRQAPGKGLEWVARIRSKYNNYATYYADSVKGRFTISRDDSKSILYLQMNSLKTEDTAMYYCVRHSNFLNSYVSWFAYWGQGTLVTVSSASTKGPSVFPLAPSSKSTSGGTAALGCLVKDYFPEPVTVSWNSGALTSGVHTFPAVLQSSGLYSLSSVVTVPSSSLGTQTYICNVNHKPSNTKVDKKV[letters of human IgG1 Fc with changes omitted]GGGGSGGGGSEVQLVESGGGLVQAGESLRLSCAVSGNIGSIRHMGWHRQDPGKERELVATITTVGTTYYANFVKGRFTISRDNAKNTVYLQMNSLKPEDTGVYYCRATAHPTDYWGQGTQVTVSS
light: [letters of about 100 residues omitted][letters of about 100 residues omitted]
notes: [VH23]-[CH]-[L]-[3C6 VHH] with [VL-1]-[CL]
B7: CD3-MSLN bispecific antibody B10 (bispecific antibody, human IgG1, lambda)
heavy: EVQLVESGGGLVQPGGSLRLSCAASGFTFNTYAMNWVRQAPGKGLEWVARIRSKYNNYATYYADSVKDRFTISRDDSKSSLYLQMNSLKTEDTAVYYCVRHSNFRNSYVSWFAYWGQGTLVTVSSASTKGPSVFPLAPSSKSTSGGTAALGCLVKDYFPEPVTVSWNSGALTSGVHTFPAVLQSSGLYSLSSVVTVPSSSLGTQTYICNVNHKPSNTKVDKKV[letters of human IgG1 Fc with changes omitted]GGGGSGGGGSEVQLVESGGGLVQAGESLRLSCAVSGNIGSIRHMGWHRQDPGKERELVATITTVGTTYYANFVKGRFTISRDNAKNTVYLQMNSLKPEDTGVYYCRATAHPTDYWGQGTQVTVSS
light: [letters of about 100 residues omitted][letters of about 100 residues omitted]
notes: [VH10]-[CH]-[L]-[3C6 VHH] with [VL-1]-[CL]
B8: CD3-MSLN bispecific antibody B12 (bispecific antibody, human IgG1, lambda)
heavy: EVQLVESGGGLVQPGGSLRLSCAASGFTFNTYAMNWVRQAPGKGLEWVARIRSKYNNYATYYADSVKGRFTISRDDSKSSLYLQMNNLKTEDTAMYYCVRHSNFPNSYVSWFAYWGQGTLVTVSSASTKGPSVFPLAPSSKSTSGGTAALGCLVKDYFPEPVTVSWNSGALTSGVHTFPAVLQSSGLYSLSSVVTVPSSSLGTQTYICNVNHKPSNTKVDKKV[letters of human IgG1 Fc with changes omitted]GGGGSGGGGSEVQLVESGGGLVQAGESLRLSCAVSGNIGSIRHMGWHRQDPGKERELVATITTVGTTYYANFVKGRFTISRDNAKNTVYLQMNSLKPEDTGVYYCRATAHPTDYWGQGTQVTVSS
light: [letters of about 100 residues omitted][letters of about 100 residues omitted]
notes: [VH12]-[CH]-[L]-[3C6 VHH] with [VL-1]-[CL]
B9: CD3-MSLN bispecific antibody B18 (bispecific antibody, human IgG1, lambda)
heavy: EVQLVESGGGLVQPGGSLRLSCAASGFTFNTYAMNWVRQAPGKGLEWVARIRSKYNNYATYYADSVKDRFTISRDDSKSSLYLQMNSLKTEDTAMYYCVRAGNFGNSYVNWFAYWGQGTLVTVSSASTKGPSVFPLAPSSKSTSGGTAALGCLVKDYFPEPVTVSWNSGALTSGVHTFPAVLQSSGLYSLSSVVTVPSSSLGTQTYICNVNHKPSNTKVDKKV[letters of human IgG1 Fc with changes omitted]GGGGSGGGGSEVQLVESGGGLVQAGESLRLSCAVSGNIGSIRHMGWHRQDPGKERELVATITTVGTTYYANFVKGRFTISRDNAKNTVYLQMNSLKPEDTGVYYCRATAHPTDYWGQGTQVTVSS
light: [letters of about 100 residues omitted][letters of about 100 residues omitted]
notes: [VH18]-[CH]-[L]-[3C6 VHH] with [VL-1]-[CL]
B10: CD3-MSLN bispecific antibody B15 (bispecific antibody, human IgG1, lambda)
heavy: EVQLVESGGGLVQPGGSLRLSCAASGFTFNTYAMNWVRQAPGKGLEWVARIRSKYNNYATYYADSVKDRFTISRDDSKSSLYLQMNSLKTEDTAMYYCVRHGDPGNSYVSWFAYWGQGTLVTVSSASTKGPSVFPLAPSSKSTSGGTAALGCLVKDYFPEPVTVSWNSGALTSGVHTFPAVLQSSGLYSLSSVVTVPSSSLGTQTYICNVNHKPSNTKVDKKV[letters of human IgG1 Fc with changes omitted]GGGGSGGGGSEVQLVESGGGLVQAGESLRLSCAVSGNIGSIRHMGWHRQDPGKERELVATITTVGTTYYANFVKGRFTISRDNAKNTVYLQMNSLKPEDTGVYYCRATAHPTDYWGQGTQVTVSS
light: [letters of about 100 residues omitted][letters of about 100 residues omitted]
notes: [VH15]-[CH]-[L]-[3C6 VHH] with [VL-1]-[CL]

The first assay concerns the target T1, Human CD3εγ recombinant antigen (acrobiosystems, Cat. No. CDG-H52W5) (human, UniProt P07766 23-126; P09693 23-116).
T1 construct: Bought recombinant protein
As to the kind of experiment: SPR chip (Carterra), antibody captured, antigen in flow.
With B1, the Kd is 6.1 nM, the koff is 0.0034 s⁻¹ and the kon was found to be 550000 M⁻¹ s⁻¹.

For the molecule B2, the Kd was found to be 3.3 nM, the koff stood at 0.0049 s⁻¹ and the kon is 1.5e+06 M⁻¹ s⁻¹.

Regarding B3, the Kd worked out at 2.5 nM, the koff worked out at 0.0035 s⁻¹ and the on-rate constant (kon) stood at 1.4e+06 M⁻¹ s⁻¹.

Regarding B4, the Kd was 3 nM, the off-rate constant (koff) turned out to be 0.0025 s⁻¹ and the association rate constant (kon) worked out at 840000 M⁻¹ s⁻¹.

On to B5, for which the Kd was 0.61 nM, the dissociation rate constant (koff) was 0.0014 s⁻¹ and the kon was 2.3e+06 M⁻¹ s⁻¹.

As for B6, the Kd came to 1.4 nM, the koff was found to be 0.0026 s⁻¹ and the kon is 1.9e+06 M⁻¹ s⁻¹.

Turning to B7, the Kd is 2.2 nM, the koff was 0.002 s⁻¹ and the kon was determined as 930000 M⁻¹ s⁻¹.

With B8, the Kd turned out to be 1.2 nM, the koff is 0.0021 s⁻¹ and the kon was found to be 1.7e+06 M⁻¹ s⁻¹.

The target of the next assay is T2, Monkey CD3 on cynomolgus HSC-F cells (cynomolgus monkey, UniProt Q95LI5 22-198; Q95LI7 23-181; Q95LI8 22-171).
T2 construct: whole, on cells; also called Monkey CD3-expressing cynomolgus HSC-F cells; cynomolgus monkey CD3-expressing HSC-F cells
T2 sequence (Q95LI5 22-198, chain 1 of 3): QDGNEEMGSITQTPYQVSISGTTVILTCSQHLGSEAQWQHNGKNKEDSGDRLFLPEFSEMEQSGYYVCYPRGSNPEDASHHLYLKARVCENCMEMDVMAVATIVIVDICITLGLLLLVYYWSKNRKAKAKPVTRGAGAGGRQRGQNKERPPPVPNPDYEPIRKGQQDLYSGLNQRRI
T2 sequence (Q95LI7 23-181, chain 2 of 3, further chain): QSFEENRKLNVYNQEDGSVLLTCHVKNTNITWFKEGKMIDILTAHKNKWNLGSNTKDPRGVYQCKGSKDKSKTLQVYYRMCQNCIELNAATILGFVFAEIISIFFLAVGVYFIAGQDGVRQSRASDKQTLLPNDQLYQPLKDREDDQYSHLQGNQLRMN
T2 sequence (Q95LI8 22-171, chain 3 of 3, further chain): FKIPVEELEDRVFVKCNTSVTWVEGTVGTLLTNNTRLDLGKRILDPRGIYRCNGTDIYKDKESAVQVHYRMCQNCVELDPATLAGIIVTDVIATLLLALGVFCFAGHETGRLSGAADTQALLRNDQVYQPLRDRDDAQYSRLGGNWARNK
As to the kind of experiment: flow cytometry on HSC-F cells.
Turning to B9, the EC50 was found to be 0.954 nM.

In turn, B10 came in with an EC50 of 0.164 nM.

For B1, the EC50 was found to be 0.182 nM.

In turn, B2 registered an EC50 of 0.15 nM.

Molecule B3 yielded an EC50 of 0.329 nM.

B4 returned an EC50 of 0.237 nM.

Regarding B5, the EC50 was 0.29 nM.

Molecule B6 gave an EC50 of 0.163 nM.

With B7, the 50% effective concentration (EC50) was determined as 0.216 nM.

As for B8, the 50% effective concentration (EC50) was 0.179 nM.

In a further assay the target is T3, Human CD3 on Jurkat cells (human, UniProt P07766; P09693; P04234).
T3 construct: whole, on cells; also called Human CD3-expressing Jurkat cells; Jurkat (naturally expressing human CD3)
Put plainly: flow cytometry on Jurkat cells.
The molecule B9 displayed an EC50 of 0.563 nM.

B10 had an EC50 of 0.17 nM.

For B1, the concentration for a half-maximal effect (EC50) is 0.131 nM.

B2 yielded an EC50 of 0.141 nM.

Regarding B3, a half-maximal effect (EC50) was put at 1.36 nM.

Take B4: the EC50 worked out at 0.159 nM.

In turn, B5 displayed an EC50 of 1.96 nM.

Molecule B6 yielded an EC50 of 0.193 nM.

Regarding B7, the EC50 was 2.71 nM.

B8: the concentration for a half-maximal effect (EC50) is 0.242 nM.
